From PubChem BioAssay AID488969 (Vanderbilt High Throughput Screening Facility, 2010)
In all, about 110,000 compounds were measured (“z-score”: median about -0.1, highest 2% from about 2 on). Some of the results follow.

biological target: Metabotropic glutamate receptor 8 (Rattus norvegicus) (UniProt P70579); assay: rat mGluR8 modulators via GIRK flux, primary screen, cell-based, thallium flux, HTS (AID 488969); conditions: HEK293 rat mGluR8, GIRK (G protein-gated inwardly rectifying potassium channel) thallium flux, FluoZin2; at 10 µM; stronger effect = higher value; submaximal glutamate (EC20) added with thallium
Chain of UniProt P70579 (P70579 whole entry, looked up): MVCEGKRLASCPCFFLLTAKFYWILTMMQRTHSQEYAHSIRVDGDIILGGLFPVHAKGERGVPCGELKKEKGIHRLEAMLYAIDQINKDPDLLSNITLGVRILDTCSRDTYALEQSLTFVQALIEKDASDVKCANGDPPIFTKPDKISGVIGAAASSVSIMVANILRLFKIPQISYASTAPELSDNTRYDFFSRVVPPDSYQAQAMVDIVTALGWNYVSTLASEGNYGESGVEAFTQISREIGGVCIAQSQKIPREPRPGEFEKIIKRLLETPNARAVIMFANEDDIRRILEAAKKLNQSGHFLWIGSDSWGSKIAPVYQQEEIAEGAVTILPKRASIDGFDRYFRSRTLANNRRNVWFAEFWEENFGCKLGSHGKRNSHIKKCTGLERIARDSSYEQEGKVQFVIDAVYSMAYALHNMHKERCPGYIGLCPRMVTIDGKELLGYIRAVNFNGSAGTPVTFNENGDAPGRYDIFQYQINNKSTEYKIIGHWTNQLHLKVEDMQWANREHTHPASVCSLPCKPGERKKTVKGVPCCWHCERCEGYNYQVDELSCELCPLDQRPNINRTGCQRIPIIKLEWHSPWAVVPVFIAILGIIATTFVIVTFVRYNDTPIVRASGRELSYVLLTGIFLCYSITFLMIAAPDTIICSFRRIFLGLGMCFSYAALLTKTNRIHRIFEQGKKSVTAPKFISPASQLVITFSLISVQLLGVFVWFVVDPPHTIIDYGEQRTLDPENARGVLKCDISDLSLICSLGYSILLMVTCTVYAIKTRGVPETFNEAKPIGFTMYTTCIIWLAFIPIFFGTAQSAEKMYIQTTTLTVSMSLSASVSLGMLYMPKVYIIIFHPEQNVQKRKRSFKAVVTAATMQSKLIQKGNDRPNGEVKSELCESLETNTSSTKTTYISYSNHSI

Row | Compound | z-score
1 | COc1ccc(/C=C/C(=O)Nc2ccc(-n3nncc3-c3ccccc3)cc2)cc1OC | 0.904
2 | CCCCCSc1nnc2c(n1)OC(c1cccn1C)N(C(C)=O)c1ccccc1-2 (stereo not given) | 0.139
3 | CCOC(=O)c1sc(C)c2c1NC1(CCCCC1)NC2=O | 0.0327
4 | Cc1cc(NC(c2ccc(Cl)cc2)c2ccc3cccnc3c2O)no1 (stereo not given) | 1.61
5 | COc1cccc(OC)c1C(=O)OCC(=O)Nc1ccc(OC(F)(F)F)cc1 | -0.154
6 | COn1c(=S)[nH]c2ccccc2c1=O | 1.06
7 | O=[N+]([O-])c1nn(-c2ccccc2)n(O)c1=NCCc1ccccc1 | 0.152
8 | Cc1nn(C)c(C(=O)Nc2ccn(Cc3c(F)c(F)cc(F)c3F)n2)c1[N+](=O)[O-] | -0.107
9 | COc1ccc(CCN2C(=O)CS/C2=N\NC(=O)c2ccc(C(C)(C)C)cc2)cc1OC | -0.294
10 | COCCCNCCOc1ccc(C(C)(C)c2ccccc2)cc1 | 0.437
11 | C[C@H](NS(=O)(=O)c1ccccc1)C(=O)OCC(=O)NC(=O)Nc1ccc2c(c1)OCCO2 | 0.378
12 | Cc1cccn2cc(CNC(=O)CC3CCCC3)nc12 | -0.382
13 | O=C(Nc1ccncc1)c1cc(F)cc(F)c1 | 0.0311
14 | COc1ccc(OC(C)C(=O)NC2CC(C)(C)NC(C)(C)C2)cc1 (stereo not given) | -0.345
15 | COC(=O)Oc1ccc(/C=N/NC(=O)CN(c2ccccc2Cl)S(C)(=O)=O)cc1OC | -0.464
16 | Cc1sc2nc(CN3CCOCC3)nc(NS(=O)(=O)c3ccccc3)c2c1C | -0.393
17 | Cc1nn(CC(=O)NCCN2CCOCC2)c(=O)c2ccccc12 | 0.993
18 | O=C(NCCc1ccccc1)C(=O)NC1CCCCC1 | 1.55
19 | Cn1c(=O)c2c(ncn2CC(=O)N(Cc2ccccc2)c2ccccn2)n(C)c1=O | -0.0804
20 | O=c1cc(/C=C/c2cccs2)[nH]c2ccccc12 | -0.116
21 | CCC(C)OC(=O)C1=C(C)O[C@]23OC(N)=C(C#N)[C@]12C(=O)c1ccccc13 (stereo not given in full) | -0.703
22 | CN(C)C(=O)c1ccccc1Sc1cc(Cl)ccc1Cl | -0.216

Row | Compound | z-score
23 | Cc1cc(NC(=O)CSc2nc3ccsc3c(=O)n2Cc2ccccn2)n[nH]1 | 0.559
24 | CCOc1ccc(-c2noc(CCC(=O)O)n2)cc1 | -0.8
25 | CCc1ccc(C(=O)OCC(=O)Nc2cccc(S(=O)(=O)NC3=NCCCCC3)c2)cc1 | 1.21
26 | CCCCn1c(=O)[nH]c(=O)c2c1nc(CN1C(=O)c3ccccc3S1(=O)=O)n2CCC | -0.0545
27 | Cc1ccc(S(=O)(=O)NCCC(=O)Nc2ccc(Cl)c(Cl)c2)cc1 | 0.267
28 | Cn1nnnc1SCc1nnc(-c2ccc(Cl)cc2)o1 | 2.68
29 | Cc1ccc(/C=N/Nc2ccc3c(C(F)(F)F)cc(C(F)(F)F)nc3n2)cc1 | -0.572
30 | Cc1ccc(OCc2nnc(SCC(=O)Nc3cccc4ccccc34)n2-c2ccccc2)cc1 | -0.328
31 | CC(=O)NC(NC(=S)Nc1ccc(N=Nc2ccccc2C)cc1C)C(Cl)(Cl)Cl (stereo not given) | 0.143
32 | O=C(NCCCN1CCOCC1)c1ccc(CNS(=O)(=O)c2ccc(F)cc2)cc1 | 0.0341
33 | CCc1nc(SCC(=O)N2CCOCC2)c2c(=O)n(C)c(=O)n(C)c2n1 | -0.127
34 | COc1ccc(-c2nc(SC)n(C(=O)c3ccco3)n2)cc1 | -0.557
35 | O=c1c2c([N+](=O)[O-])cc([N+](=O)[O-])cc2sn1-c1ccc(Br)cc1 | -0.194
36 | CCCCCn1c(CNC(=O)CC)nc2ccccc21 | -0.601
37 | CC(C)OC(=O)COc1ccc(-c2ccccc2)cc1 | 0.502
38 | CCCc1[nH]nc2c1C(c1cccc(OC)c1)C(C#N)=C(N)O2 (stereo not given) | -0.647
39 | O=C(c1noc2c1CCc1ccccc1-2)N1CCCc2ccccc21 | -0.308
40 | CC(=O)c1cccc(NC(=O)c2cc3ccccn3n2)c1 | -0.0302
41 | CCOc1ccc(/C=C/C(=O)Nc2ccc(N3CCOCC3)cc2)cc1 | -0.494
42 | Cc1cccc(C)c1NC(=O)C1(N2C(=O)CC2c2ccccc2)CCCCC1 (stereo not given) | -0.216
43 | O=C(CS(=O)(=O)Cc1ccccc1)N1CCc2ccccc21 | -0.121
44 | COc1cccc(/C=C/C(=O)Oc2ccc(C(=O)c3ccc(F)cc3)cc2)c1 | -2.23

Row | Compound | z-score
45 | C=CCn1c2ccccc2c2nnc(SCN3C(=O)c4ccccc4C3=O)nc21 | -0.209
46 | CN1C=CC2=C(C#N)C(N)C(C#N)(C#N)[C@H](c3ccccc3)[C@H]2C1 (stereo not given in full) | -2.28
47 | O=C(Oc1ccc2cc(Br)ccc2c1)N1CCCCCC1 | -0.558
48 | O=C(CN1C(=O)c2ccccc2S1(=O)=O)c1ccccc1 | 0.695
49 | CC1(C)CC(=O)c2c(n(S(=O)(=O)c3ccccc3)c3ccc(NS(=O)(=O)c4ccccc4)cc23)C1 | -0.471
50 | Nc1cc(C(=O)OCC(=O)NC(c2ccccc2)c2ccccc2)ccc1Cl | -0.446
51 | Cc1ccc(S(=O)(=O)N2CCCCC2)cc1NC(=O)c1ccc2c(c1)OCO2 | -0.702
52 | Cc1ccc(C)c(NS(=O)(=O)c2cc(C(=O)Nc3cccc(N(C)S(C)(=O)=O)c3)ccc2C)c1 | -0.232
53 | COc1cccc(-c2nc(-c3ccc(NC(=O)c4ccncc4)cc3)no2)c1 | -0.0821
54 | CN(CCCNC(=O)C1CCN(S(=O)(=O)N2CCC3(CC2)OCCO3)CC1)Cc1ccccc1 | -0.136
55 | Cc1nc(NC(=O)/C=C/c2ccccc2)sc1C(=O)Nc1ccccc1 | -0.145
56 | Cc1ccc(NC(=O)OCC(F)(F)C(F)F)cc1NC(=O)OCC(F)(F)C(F)F | -1.09
57 | COc1ccc(-c2csc(/C(C#N)=C\c3ccc(OC)c([N+](=O)[O-])c3)n2)cc1 | -0.149
58 | CC(C)[C@H](NC(=O)OC(C)(C)C)c1nnc(SCC(=O)Nc2ccc(Br)cc2)o1 | -0.355
59 | Cc1ccc2c(c1)CCCN2C(=O)c1ccco1 | -0.144
60 | COc1ccc(NS(=O)(=O)c2cccc(NC(=O)CCC(=O)c3ccc(Cl)cc3)c2)cc1 | 0.265
61 | COc1ccc(NC(=O)C(C)Sc2nnc3c4c(nc(-c5ccc(OC)cc5)n23)CC(C)(C)OC4)cc1 (stereo not given) | -0.127
62 | CC(C)CCNC(=O)CCCn1c(=O)[nH]c2ccc(Br)cc2c1=O | 0.655
63 | CCOc1ccccc1-c1nnc(SCC(=O)NC2CC3CCC2C3)n1CC (stereo not given) | -0.246
64 | COC(=O)c1sccc1NC(=O)/C=C\c1ccc(Cl)cc1Cl | -0.187
65 | CCOc1ccc(NC(=O)CSc2nnc(Cc3cccn3C)n2-c2ccc(OC)cc2)cc1 | -0.312
66 | COc1ccc(OC)c(-n2c(SC)nnc2-c2c[nH]c3ccccc23)c1 | -0.491

Row | Compound | z-score
67 | CCCCCCCC1(C)NC(=O)N(c2ccccc2)N1 (stereo not given) | 0.742
68 | CCOc1ccccc1N1C(=O)CC(N(O)c2ccccc2)C1=O (stereo not given) | -0.0542
69 | CCOC(=O)c1nn(-c2ccccc2)c(C(=O)OCC)c1N | 0.0306
70 | CC(C)c1nc2sc3c(NCc4ccccc4)ncnc3c2c2c1COC(C)(C)C2 | 0.843
71 | O=C(NC(=S)Nc1cc(C(F)(F)F)ccc1N1CCOCC1)c1sc2ccccc2c1Cl | 0.206
72 | COc1cccc(Nc2nnc(SCC(=O)N(CC(C)C)CC(C)C)s2)c1 | -0.309
73 | Oc1sc(C=Nc2ccccc2)c2ccccc12 | 0.112
74 | COc1ccc(OC(=O)Nc2ccccc2)cc1 | 0.225
75 | CNC(=S)N(Cc1cccs1)Cc1cc2ccc(OC)cc2[nH]c1=O | -0.16
76 | Cc1cc2nc(-c3ccc(SCC(=O)Nc4ccc(S(=O)(=O)N5CCCC5)cc4)nc3)[nH]c2cc1C | -0.123
77 | O=C(CCNC(=O)c1ccc(Br)o1)NC1CCCC1 | 0.944
78 | COc1ccc(N(C)C(=O)CCS(=O)(=O)c2cccc3nonc23)cc1 | -0.499
79 | COC(=O)CCC(=O)N1CCOCCOCCN(C(=O)CCC(=O)OC)CCOCCOCC1 | -0.0679
80 | CCOC(=O)CSc1nc2ccccc2c(=O)n1C | -0.963
81 | CCc1cccc2c(N=O)c(O)[nH]c12 | -0.394
82 | O=C(c1ccco1)N1CCN(S(=O)(=O)c2ccc(S(=O)(=O)NC3CC3)cc2)CC1 | -0.31
83 | O=C1c2ccccc2C(=O)c2c1cccc2N1CCN(CCO)CC1 | -0.119
84 | COC(=O)c1c(NC(=O)CCCC(=O)O)sc2c1CCC2 | -0.046
85 | O=C(CCCc1ccccc1)Nc1cccc2c1CCCC2 | -0.0829
86 | Cn1c(=O)c(=O)n(C)c2cc(S(=O)(=O)CCC(=O)N3CCOCC3)ccc21 | 0.0626
87 | Cc1ccc2occ(/C=N/O)c(=O)c2c1 | -0.606
88 | CN(C)Cc1ccccc1Cc1ccccc1 | -0.0119

Row | Compound | z-score
89 | Cc1cc(C)c(NC(=O)CSc2nc3c(c(=O)n2C)SC(C)C3)c(C)c1 (stereo not given) | -0.745
90 | COC(=O)c1ccc(Cc2ccccc2)o1 | 0.148
91 | CN(C)c1nc(SCCOC(=O)c2ccccc2)nc(N(C)C)n1 | -0.235
92 | CCOc1cccc(OCCOCCNC(C)(C)C)c1 | 0.278
93 | O=C(CSc1nnc(Cn2nnc3ccccc32)o1)Nc1ccc(Cl)cc1 | -0.0906
94 | CC(=O)CC(=O)Nc1ccccc1NC(C)=O | -0.363
95 | Cc1sc(N)c(C#N)c1C | -0.149
96 | CC1(C)NC(=O)N(CCOCCOc2cccc(Oc3ccccc3)c2)C1=O | -0.263
97 | CCOC(=O)c1cnc(SCC(=O)Nc2cc(OC)cc(OC)c2)nc1N | 0.341
98 | Cc1cc(C)cc(OCC(=O)N/N=C/c2ccncc2)c1 | -0.147
99 | COc1ccc(CCNC(=O)C2CCCN(Cc3nc(-c4cccc(Cl)c4)oc3C)C2)cc1OC (stereo not given) | 1.07
100 | CC(C)Nc1ncnc2c1cnn2-c1ccccc1 | -0.303
101 | O=C(CSc1nc2ccccc2c(=O)n1C1CC1)NCc1ccccc1 | -0.35
102 | Cc1ccc(SCC(=O)N2CCc3ccccc32)cc1 | -0.216
103 | CCCOc1ccccc1-c1nc(SCCC(=O)O)n[nH]1 | -1.73
104 | COc1ccc(C)cc1-n1nnnc1SCC(=O)NC(=O)NCc1ccco1 | -0.65
105 | N#CC1(Cc2ccccc2)c2ccccc2C=CN1C(=O)c1ccccc1 (stereo not given) | -0.211
106 | CCOC(=O)C1CCN(C(=O)COc2ccc(Cl)cc2C)CC1 | -0.0831
107 | CCOC(=O)c1cc2n(n1)C(C(F)(F)F)CC(C)N2 (stereo not given) | 0.117
108 | CCc1cc2cc(C(=O)Nc3ccc(F)cc3)sc2s1 | -0.0494
109 | Cc1cc(NC(=O)c2ccccc2Cl)c(C(C)C)cc1O | -0.112
110 | O=c1[nH]nc(Cc2ccc(Cl)cc2Cl)c2ccccc12 | -0.341
